Drawing on the antibiotic and cytotoxicity screens of Wong et al. (2023), this text covers cytotoxicity call and growth inhibition call for 28 compounds.

In one assay the test system is HSkMC. As to the kind of experiment: cytotoxicity call (relative viability < 0.9). Particulars: 10 µM.
The subject of another assay is HepG2. As to the kind of experiment: cytotoxicity call (relative viability < 0.9). Particulars: 10 µM.
Another assay relates to S. aureus RN4220. Nature of the assay: growth inhibition call (relative growth <= 0.2). The settings on record: 50 µM.

The list shows a part of the results.

Turning to `COc1ccc(S(=O)(=O)N(C)C[C@@H]2Oc3c(NC(=O)c4cnccn4)cccc3C(=O)N([C@@H](C)CO)C[C@H]2C)cc1`, the cytotoxicity call in the assay on HSkMC and in the assay on HepG2 was “inactive” throughout. Besides, in the assay on S. aureus RN4220, the growth inhibition call was “inactive”.
`C[C@@H]1CN([C@H](C)CO)C(=O)c2cccc(NC(=O)CCCCCC(=O)Nc3ccccc3N)c2O[C@H]1CN(C)Cc1ccc(C(F)(F)F)cc1`: the cytotoxicity call in the assay on HSkMC and in the assay on HepG2 was “inactive” throughout. The growth inhibition call in the assay on S. aureus RN4220 was “inactive”.
As for `COc1ccc([Si](C)(C)[C@H]2[C@H](CCO)O[C@@]3(C(=O)N(Cc4ccc(N5CCCCC5=O)cc4)c4ccccc43)[C@@H]2C)cc1`, the cytotoxicity call with HSkMC and in the assay with HepG2 was “inactive” each time. For the same compound, the growth inhibition call in the assay on S. aureus RN4220 was “inactive”.
With `Nc1ccc(OCC(=O)N2CCOCC2)cc1`, the cytotoxicity call in the assay on HSkMC and in the assay on HepG2 was “inactive” each time. Besides, the growth inhibition call in the assay with S. aureus RN4220 is “inactive”.
Turning to `COc1ccc(NC(=O)Nc2ccc3c(c2)CC(=O)N([C@H](C)CO)C[C@H](C)[C@@H](CN(C)C(=O)Nc2cccc4ccccc24)O3)cc1`, the cytotoxicity call in the assay on HSkMC and in the assay with HepG2 was “inactive” each time. In addition, the growth inhibition call with S. aureus RN4220 was “inactive”.
As for `O=c1ccc(-n2cccn2)n[nH]1`, the cytotoxicity call in the assay with HSkMC and with HepG2 was “inactive” each time. Also, in the assay with S. aureus RN4220, the growth inhibition call was “inactive”.
Consider `O=C(Nc1ccc(C(F)(F)F)cc1)Nc1ccc2c(c1)[C@H]1C[C@@H](CC(=O)N3CCc4ccccc4C3)O[C@@H](CO)[C@H]1O2`, for which the cytotoxicity call with HSkMC and in the assay with HepG2 was “inactive” in each case. In addition, the growth inhibition call with S. aureus RN4220 is “inactive”.
For `C[C@H]1CN([C@@H](C)CO)C(=O)Cc2cc(NS(=O)(=O)c3cn(C)cn3)ccc2O[C@@H]1CN(C)C(=O)Nc1ccc(F)cc1`, the cytotoxicity call with HSkMC and in the assay with HepG2 was “inactive” in each case. Also, the growth inhibition call with S. aureus RN4220 is “inactive”.
Consider `CC(C)(C)OC(=O)N1C[C@H]2C[C@@H]1C(=O)O2`, for which the cytotoxicity call with HSkMC and with HepG2 was “inactive” in each case. Besides, the growth inhibition call in the assay on S. aureus RN4220 is “inactive”.
On to `C[C@H]1CN([C@@H](C)CO)C(=O)c2cc(NC(=O)Cc3cn(C)c4ccccc34)ccc2O[C@H]1CN(C)Cc1ccc(Cl)c(Cl)c1`, for which the cytotoxicity call with HSkMC and in the assay on HepG2 was “inactive” throughout. Further, the growth inhibition call in the assay on S. aureus RN4220 is “inactive”.
In the case of `Cc1noc(C)c1NC(=O)Nc1cccc2c1O[C@@H](CN(C)C(=O)Nc1cccc3ccccc13)[C@H](C)CN([C@@H](C)CO)C2=O`, the cytotoxicity call with HSkMC and in the assay on HepG2 was “inactive” throughout. Also, the growth inhibition call in the assay with S. aureus RN4220 is “inactive”.
Consider `NC(=O)[C@H]1[C@H](C(=O)O)[C@@H]2C=C[C@H]1C2`, for which the cytotoxicity call in the assay on HSkMC and in the assay with HepG2 was “inactive” each time. Moreover, in the assay with S. aureus RN4220, the growth inhibition call is “inactive”.
`COC(=O)[C@@H]1C[C@H](C#N)N[C@@H]1c1ccco1`: the cytotoxicity call in the assay with HSkMC and with HepG2 was “inactive” in each case. The growth inhibition call with S. aureus RN4220 is “inactive”.
With `O=C(NCC[C@H]1CC[C@@H](NS(=O)(=O)c2cccc(F)c2)[C@H](CO)O1)C1CC1`, the cytotoxicity call with HSkMC and in the assay with HepG2 was “inactive” throughout. Moreover, the growth inhibition call in the assay with S. aureus RN4220 was “inactive”.
On to `COc1ccc(S(=O)(=O)N(C)C[C@@H]2OCCCC[C@H](C)Oc3ccc(NC(=O)NC4CCCCC4)cc3C(=O)N([C@@H](C)CO)C[C@H]2C)cc1`, for which the cytotoxicity call in the assay on HSkMC and with HepG2 was “inactive” throughout. Also, the growth inhibition call in the assay on S. aureus RN4220 is “inactive”.
For the compound `C[C@H]1CN([C@@H](C)CO)S(=O)(=O)c2ccc(C#Cc3cccc(F)c3)cc2O[C@@H]1CN(C)S(=O)(=O)c1cn(C)cn1`, the cytotoxicity call in the assay on HSkMC and in the assay with HepG2 was “inactive” in each case. Besides, the growth inhibition call with S. aureus RN4220 is “inactive”.
Take `C[C@@H]1CN([C@@H](C)CO)C(=O)Cc2cc(NC(=O)CCN3CCOCC3)ccc2O[C@H]1CN(C)C(=O)NC1CCCCC1`: the cytotoxicity call in the assay with HSkMC and with HepG2 was “inactive” throughout. Further, the growth inhibition call with S. aureus RN4220 is “inactive”.
As to `Cc1sc(C)c(CNc2ccccc2)c1CNc1ccccc1`, the cytotoxicity call in the assay on HSkMC and with HepG2 was “inactive” throughout. Also, the growth inhibition call with S. aureus RN4220 was “inactive”.
Turning to `Cc1ccc(S(=O)(=O)N(C)C[C@H]2OCCCC[C@@H](C)Oc3ccc(NC(=O)Nc4cccc5ccccc45)cc3C(=O)N([C@@H](C)CO)C[C@H]2C)cc1`, the cytotoxicity call in the assay with HSkMC and in the assay on HepG2 was “inactive” each time. Moreover, the growth inhibition call in the assay with S. aureus RN4220 is “inactive”.
Take `C[C@H](CO)N1C[C@H](C)[C@H](CN(C)C(=O)Nc2ccc(F)cc2)OCCCC[C@H](C)Oc2ccc(NC(=O)C3CCCCC3)cc2C1=O`: the cytotoxicity call with HSkMC and in the assay on HepG2 was “inactive” each time. Also, in the assay on S. aureus RN4220, the growth inhibition call was “inactive”.
For the compound `C[C@@H]1CCCCO[C@H](CN(C)Cc2ccncc2)[C@H](C)CN([C@H](C)CO)C(=O)c2cc(NS(=O)(=O)c3ccc(Cl)cc3)ccc2O1`, the cytotoxicity call in the assay with HSkMC and in the assay on HepG2 was “inactive” each time. Moreover, the growth inhibition call with S. aureus RN4220 was “inactive”.
`C[C@H](CO)N1C[C@H](C)[C@H](CN(C)S(C)(=O)=O)Oc2ncc(C#Cc3ccc(C(F)(F)F)cc3)cc2C1=O`: the cytotoxicity call with HSkMC and in the assay on HepG2 was “inactive” throughout. Moreover, the growth inhibition call in the assay on S. aureus RN4220 is “inactive”.
Take `COc1ccccc1NC(=O)N(C)C[C@@H]1OCc2ccccc2-c2c(n(C)c3ccccc23)C(=O)N([C@H](C)CO)C[C@H]1C`: the cytotoxicity call in the assay with HSkMC and with HepG2 was “inactive” throughout. Besides, the growth inhibition call in the assay with S. aureus RN4220 is “inactive”.
Take `C[C@@H]1CCCCO[C@H](CN(C)S(=O)(=O)c2ccc(Cl)cc2)[C@@H](C)CN([C@H](C)CO)C(=O)c2cc(NC(=O)Nc3ccc(F)cc3)ccc2O1`: the cytotoxicity call with HSkMC and with HepG2 was “inactive” throughout. Moreover, the growth inhibition call with S. aureus RN4220 was “inactive”.
With `C[C@H](CO)N1C[C@H](C)[C@@H](CN(C)C(=O)CCCN(C)C)OCc2cn(nn2)CCCC1=O`, the cytotoxicity call in the assay on HSkMC and in the assay with HepG2 was “inactive” in each case. Further, the growth inhibition call with S. aureus RN4220 was “inactive”.
`CC(C)NC(=O)N(C)C[C@@H]1Oc2ccc(NC(=O)CCN3CCOCC3)cc2CC(=O)N([C@H](C)CO)C[C@@H]1C`: the cytotoxicity call with HSkMC and in the assay on HepG2 was “inactive” throughout. Further, in the assay on S. aureus RN4220, the growth inhibition call was “inactive”.
For `C[C@@H]1CN([C@H](C)CO)S(=O)(=O)c2ccc(C#Cc3ccncc3)cc2O[C@H]1CN(C)C(=O)c1ccncc1`, the cytotoxicity call in the assay on HSkMC (human skeletal muscle cells) was “inactive”. The cytotoxicity call in the assay on HepG2 is “active”. For the same compound, in the assay with S. aureus RN4220, the growth inhibition call is “inactive”.
As to `Cc1cc(=O)[n+]2cccc(O)c2[nH]1`, the cytotoxicity call with HSkMC and with HepG2 was “inactive” throughout. Further, the growth inhibition call in the assay with S. aureus RN4220 is “active”.
